Screen size: about 91,000 compounds; about 290 (0.32%) were called active. Inconclusive means that the source gave no clear call. Such entries were picked first, then a sample of the others. Calls follow the shape of the dose curve; as a rule, active = well fitted inhibition curve with a large enough effect; inconclusive = small, poorly fitted or top-dose-only effect; inactive = no such curve, though single readings can be large or run the other way. Potencies beside an inconclusive call are fits to weak or partial responses and may not hold up.
Biological target: Single-stranded DNA cytosine deaminase (Homo sapiens) (UniProt Q9GZX7)
Assay: Primary qHTS assay for inhibitors of Activation Induced Cytidine Deaminase (AID): AID signal; also: nearly all actives have a fitted effect of over 25% in size
Conditions: AID deamination FRET fluorescence, UDG-coupled, 4 h; series mostly up to 115 µM
Potency is read from the fitted curve at half-maximal effect; tags tell the direction and shape of the fitted curve.

Sequence of UniProt Q9GZX7 (Q9GZX7 whole entry, looked up): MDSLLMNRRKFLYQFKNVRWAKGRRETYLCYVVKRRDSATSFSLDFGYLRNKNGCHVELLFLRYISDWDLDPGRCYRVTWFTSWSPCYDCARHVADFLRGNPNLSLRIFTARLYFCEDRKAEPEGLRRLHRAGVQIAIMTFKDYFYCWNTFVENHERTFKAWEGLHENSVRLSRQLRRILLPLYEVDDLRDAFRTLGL

Structure (SMILES) | Potency
COc1cc(Nc2nc(N3CCN(c4ccccc4)CC3)c3nccnc3n2)cc(OC)c1OC | inconclusive: 79.4 µM [inhibitor, partial curve, poor fit]
O=S1(=O)c2ccccc2N(Cc2ccccc2Cl)c2ccccc21 | inconclusive: 17.8 µM [inhibitor, full curve, poor fit]
COc1ccc(Nc2nc(N)nc(CSc3nc4ccccc4s3)n2)cc1 | inconclusive: 56.2 µM [inhibitor, partial curve, poor fit]
CCN1C(=O)c2ccccc2Sc2ccc(NC(=O)Nc3ccc(Br)c(C)c3)cc21 | inconclusive: 25.1 µM [inhibitor, partial curve, poor fit]
CN(CCCNC(=O)c1ccccc1)CC(F)(F)F | inactive
Fc1ccc(NCc2ccccc2F)cc1 | inactive
CCc1ccccc1Nc1nn2c(=O)c3ccc(C(=O)NCc4cccs4)cc3nc2s1 | active: 31.6 µM
Clc1ccc(-c2noc3ncnc(NCCCN4CCN(c5ccccc5)CC4)c23)cc1 | inconclusive: 35.5 µM [inhibitor, full curve]
CCOC(=O)C1CCCN(C(=O)C2CCN(c3nnc(C)c4c(C)n(-c5ccccc5)nc34)CC2)C1 (stereo not given) | inconclusive: 100 µM [inhibitor, partial curve, poor fit]
O=C(NC1CCCC1)c1ccc(CSc2nc3ccncc3n2Cc2ccccc2F)cc1 | inconclusive: 79.4 µM [inhibitor, single point]
CC12CCC(C(=O)Nc3ccccc3)(CC1=O)C2(C)C (stereo not given) | inactive
COc1ccc(OC2CCN(S(=O)(=O)c3ccc(OC)cc3)CC2)cc1 | inconclusive: 25.1 µM [inhibitor, partial curve, poor fit]
CCOC(=O)c1nc2ccccc2nc1NCCc1ccc(OCC)c(OCC)c1 | inactive
Cc1nc2ccn(Cc3cccs3)c(=O)c2cc1C(=O)N1CCN(c2ccc(F)cc2)CC1 | inconclusive: 56.2 µM [inhibitor, partial curve, poor fit]
O=C(CN(c1ccc(Cl)c(C(F)(F)F)c1)S(=O)(=O)c1ccccc1)N1CCc2ccccc2C1 | inconclusive: 20 µM [inhibitor, single point]
Clc1ccccc1N/N=C/C(Br)=C/c1ccccc1 | inactive
COc1ccc(N2Cc3cccc(C(=O)Nc4ccc(C(C)C)cc4)c3C2=O)cc1 | inconclusive: 100 µM [inhibitor, partial curve, poor fit]
COc1ccccc1CNc1cc(-c2ccccc2)nc2nncn12 | inconclusive: 70.8 µM [inhibitor, partial curve, poor fit]
Cc1ccc(OCCn2c(CNc3cccc(C)c3)nc3ccccc32)cc1 | inconclusive: 11.2 µM [inhibitor, partial curve, poor fit]
CCCSc1nc2c(c(=O)n(C)c(=O)n2C)n1Cc1cccc2ccccc12 | inconclusive: 50.1 µM [inhibitor, partial curve, poor fit]

Structure (SMILES) | Potency
COc1ccc2c(c1)Cc1sc(NC(=O)c3ccccc3Br)nc1-2 | inconclusive: 31.6 µM [inhibitor, full curve, poor fit]
Cc1ccc(C)n1-c1nnc(N2CCC(C(=O)Nc3ccccc3Br)CC2)s1 | inconclusive: 100 µM [inhibitor, single point]
Cc1[nH]c(I)c(C)c1C=O | inactive
Cc1ccc2c(=O)cc(C(=O)Nc3nnc(CC(C)C)s3)oc2c1C | inconclusive: 56.2 µM [inhibitor, partial curve, poor fit]
Cc1c(C(=O)NCCSc2ccc(Cl)cc2)oc2c1C(=O)CCC2 | inactive
CCOC(=O)c1c(C)n(-c2ccccc2)c2ccc(OC(=O)c3ccccc3)cc12 | inconclusive: 44.7 µM [inhibitor, partial curve, poor fit]
Cc1cccc(-c2noc(CN(C(=O)COc3ccc(C(C)C)cc3)C(C)C)n2)c1 | inconclusive: 56.2 µM [inhibitor, partial curve, poor fit]
CCOc1ccc(-c2nc(CSCC(=O)N3CCN(c4cccc(C(F)(F)F)c4)CC3)c(C)o2)cc1 | active: 31.6 µM
O=c1[nH]c2ccc(Cl)cc2c(-c2ccccc2)c1CN1CCCCC1 | inconclusive: 50.1 µM [inhibitor, partial curve]
Cc1ccc(Cl)c2c1N[C@@H](c1ccc(C(=O)O)cc1)[C@H]1CC=C[C@@H]21 | inconclusive: 63.1 µM [inhibitor, partial curve, poor fit]
COc1ccc(-c2cc(C(=O)NCc3cc(OC)c(OC)c(OC)c3)[nH]n2)cc1 | inconclusive: 100 µM [inhibitor, single point]
COc1cccc(CNC(=O)c2ccc(CSc3nc4ccncc4n3Cc3cccc(C)c3)cc2)c1 | inconclusive: 79.4 µM [inhibitor, partial curve, poor fit]
COc1ccc2c(c1)c(C(C(=O)O)N1CCN(CCC#N)CC1)cn2CC(=O)O (stereo not given) | inactive
COc1cc(-c2nnc(SCCOc3ccc(Cl)cc3C)o2)cc(OC)c1OC | inconclusive: 31.6 µM [inhibitor, full curve, poor fit]
Cc1ccc2c(c1)-c1nc(-c3ccc(Cl)cc3)cc(-c3coc4ccccc4c3=O)c1CO2 | inconclusive: 100 µM [inhibitor, single point]
Cc1ccc(Cl)cc1N1CCN(C(=O)c2cnc(N3CCOCC3)c3ccccc23)CC1 | active: 22.4 µM
CCOc1ccc(-n2c(Cc3ccccc3)nnc2SCc2nc(-c3ccccc3OC)no2)cc1 | inconclusive: 50.1 µM [inhibitor, partial curve, poor fit]
Cc1ccc(N(CC(=O)NCCc2ccc(Cl)cc2)S(=O)(=O)N(C)C)cc1 | inconclusive: 79.4 µM [inhibitor, single point]
Cc1ccc(CN2CCc3nc(N4CCN(c5ncccn5)CC4)ncc3C2)cc1 | inconclusive: 79.4 µM [inhibitor, partial curve, poor fit]
CCc1ccc(CNC(=O)c2sc3ncccc3c2-n2c(C)ccc2C)cc1 | inconclusive: 44.7 µM [inhibitor, partial curve, poor fit]
